Where a name gives a salt, the structure may show the parent alone. ± gives the standard deviation of the averaged measurements. The full ranking holds about 1,900 compounds; the median of “normalised cell viability (NPI; 0 = phenylarsine oxide control, 1 = DMSO control)” is about 1, and the lowest 2% start at about 0.039. The list shows a part of the results.
Tested on: NCI-H1944
Assay: normalised cell viability (NPI; 0 = phenylarsine oxide control, 1 = DMSO control) (fraction of DMSO control); NCI-H1944 is a non-small cell lung cancer line; higher = more viable cells (less compound toxicity)
Settings: 6 days
[1] = glucocorticoid arm: hydrocortisone 2.75 uM co-treatment, compound 1 µM
[2] = glucocorticoid arm: hydrocortisone 2.75 uM co-treatment, compound 5 µM
[3] = glucocorticoid arm: hydrocortisone 2.75 uM pre-treated 2 days and continued, compound 1 µM
[4] = glucocorticoid arm: hydrocortisone 2.75 uM pre-treated 2 days and continued, compound 5 µM
[5] = glucocorticoid arm: vehicle, compound 1 µM
[6] = glucocorticoid arm: vehicle, compound 5 µM
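Also: CTB read-out in 384-well plates, mean of triplicate wells, normalised per plate against 1 µM phenylarsine oxide and 0.1% DMSO, compounds added 24 h after seeding.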

| Structure (SMILES) | normalised cell viability [1] | normalised cell viability [2] | normalised cell viability [3] | normalised cell viability [4] | normalised cell viability [5] | normalised cell viability [6] |
| --- | --- | --- | --- | --- | --- | --- |
| CCOC(=O)C1=C(C)NC(C)=C(C(=O)OC)C1c1cccc(Cl)c1Cl (stereo not drawn) [Felodipine] | 0.983 ± 0.026 | 0.938 ± 0.03 | 0.9947 ± 0.0047 | 0.916 ± 0.02 | 0.9823 ± 0.0091 | 0.9913 ± 0.0025 |
| Cc1nc2sccn2c(=O)c1CCN1CCC(=C(c2ccc(F)cc2)c2ccc(F)cc2)CC1 [Ritanserin] | 1 ± 0.013 | 1 ± 0.017 | 1.03 ± 0.032 | 1.02 ± 0.011 | 1.005 ± 0.0081 | 1.007 ± 0.0058 |
| CCCCCCCCCCCCCCCc1cccc(O)c1C(=O)O [Anacardic acid] | 1 ± 0.015 | 1.02 ± 0.0063 | 1.01 ± 0.012 | 1.02 ± 0.022 | 1 ± 0.024 | 1.01 ± 0.019 |
| C[N+](C)(C)CCOC(N)=O [Carbachol] | 1.01 ± 0.011 | 1.02 ± 0.011 | 1.01 ± 0.01 | 1.01 ± 0.039 | 0.9927 ± 0.0055 | 0.9937 ± 0.0071 |
| CCN1C(=O)C=CC1=O [N-Ethylmaleimide] | 1.02 ± 0.01 | 1.01 ± 0.01 | 1 ± 0.02 | 1.01 ± 0.011 | 0.99 ± 0.0044 | 0.9893 ± 0.0055 |
| COc1cc(Nc2ncc3c(n2)-c2ccc(Cl)cc2C(c2c(F)cccc2OC)=NC3)ccc1C(=O)O [Alisertib (MLN8237)] | 0.962 ± 0.024 | 0.982 ± 0.012 | 0.942 ± 0.063 | 0.995 ± 0.027 | 0.996 ± 0.017 | 0.903 ± 0.018 |
| COc1cc(Nc2ncc3c(n2)-c2ccc(Cl)cc2C(c2c(F)cccc2OC)=NC3)ccc1C(=O)O [MLN8237 (Alisertib)] | 0.888 ± 0.0036 | 0.992 ± 0.027 | 0.943 ± 0.025 | 0.965 ± 0.022 | 0.509 ± 0.025 | 0.955 ± 0.01 |
| Cc1ccc(Nc2nccc(N(C)c3ccc4c(C)n(C)nc4c3)n2)cc1S(N)(=O)=O [Pazopanib Hydrochloride] | 1.07 ± 0.011 | 1.07 ± 0.021 | 1.037 ± 0.0058 | 1.05 ± 0.02 | 1.023 ± 0.0058 | 0.9 ± 0.012 |
| Cc1ccc(Nc2nccc(N(C)c3ccc4c(C)n(C)nc4c3)n2)cc1S(N)(=O)=O [Pazopanib] | 1.05 ± 0.01 | 1.12 ± 0.015 | 1.043 ± 0.0058 | 1.06 ± 0.015 | 1.02 | 1.03 ± 0.01 |
| Cc1ccc(Nc2nccc(N(C)c3ccc4c(C)n(C)nc4c3)n2)cc1S(N)(=O)=O [Pazopanib HCl] | 1.07 ± 0.01 | 1.06 ± 0.021 | 1.04 ± 0.01 | 1.04 ± 0.031 | 1.02 ± 0.01 | 0.9537 ± 0.0086 |
| CCc1ccc(/C=C2/SC(=S)NC2=O)cc1 | 1.01 ± 0.017 | 1.06 ± 0.011 | 1.04 | 1.04 ± 0.021 | 1.007 ± 0.0058 | 1.013 ± 0.0058 |
| O=c1cc(N2CCOCC2)oc2c(-c3ccccc3)cccc12 [LY-294,002 hydrochloride] | 0.995 ± 0.014 | 0.7767 ± 0.0058 | 1.002 ± 0.0068 | 0.833 ± 0.27 | 1.006 ± 0.0063 | 0.907 ± 0.015 |
| O=c1cc(N2CCOCC2)oc2c(-c3ccccc3)cccc12 | 0.951 ± 0.0066 | 0.74 ± 0.02 | 0.939 ± 0.016 | 0.814 ± 0.05 | 0.974 ± 0.017 | 0.801 ± 0.033 |
| Cc1c(C(=O)Nc2ccc(N3C[C@@H](C)O[C@@H](C)C3)nc2)cccc1-c1ccc(OC(F)(F)F)cc1 [LDE225 (NVP-LDE225,Erismodegib)] | 1.027 ± 0.0058 | 1.02 ± 0.02 | 1.01 ± 0.024 | 1.03 ± 0.021 | 1.02 ± 0.01 | 1.013 ± 0.0058 |
| Nc1cc(C(F)(F)F)c(-c2cc(N3CCOCC3)nc(N3CCOCC3)n2)cn1 | 0.6 ± 0.048 | 0.203 ± 0.0045 | 0.713 ± 0.038 | 0.411 ± 0.029 | 0.613 ± 0.059 | 0.0297 ± 0.0061 |
| CC(C)NNC(=O)c1ccncc1 [Iproniazid phosphate] | 0.994 ± 0.01 | 0.985 ± 0.018 | 0.9983 ± 0.0029 | 1.01 ± 0.087 | 0.9877 ± 0.004 | 0.995 ± 0.013 |
| Cc1cnc(NC(=O)Nc2cc(Br)c(C)cc2OC[C@@H]2CNCCO2)cn1 | 1.03 ± 0.015 | 0.827 ± 0.041 | 1.04 ± 0.015 | 1.04 ± 0.011 | 0.776 ± 0.01 | 0.334 ± 0.027 |

| Structure (SMILES) | normalised cell viability [1] | normalised cell viability [2] | normalised cell viability [3] | normalised cell viability [4] | normalised cell viability [5] | normalised cell viability [6] |
| --- | --- | --- | --- | --- | --- | --- |
| O=C(O)c1cc(=O)c2ccccc2[nH]1 [Kynurenic acid] | 1 ± 0.01 | 1.01 ± 0.019 | 0.994 ± 0.018 | 1.03 ± 0.071 | 0.9953 ± 0.0072 | 1.01 ± 0.013 |
| Clc1ccc(C(c2ccccc2Cl)C(Cl)Cl)cc1 (stereo not drawn) | 0.998 ± 0.019 | 1.02 ± 0.037 | 0.998 ± 0.011 | 1.02 ± 0.01 | 0.9913 ± 0.0081 | 1.007 ± 0.0058 |
| Clc1ccc(C(c2ccccc2Cl)C(Cl)Cl)cc1 (stereo not drawn) [1-(2-Chlorophenyl)-1-(4-chlorophenyl)-2,2-dichloroethane] | 1.013 ± 0.0058 | 0.988 ± 0.01 | 0.993 ± 0.0082 | 1.01 ± 0.026 | 0.984 ± 0.005 | 0.9963 ± 0.0035 |
| Cc1cccc(C)c1OCC(=O)N[C@@H](Cc1ccccc1)[C@@H](O)C[C@H](Cc1ccccc1)NC(=O)[C@H](C(C)C)N1CCCNC1=O [Lopinavir (ABT-378)] | 0.989 ± 0.0069 | 1.033 ± 0.0058 | 1.01 ± 0.014 | 1.03 ± 0.01 | 0.9957 ± 0.0045 | 0.9857 ± 0.0076 |
| COc1cc(CCc2cc(NC(=O)c3ccc(N4CC(C)NC(C)C4)cc3)n[nH]2)cc(OC)c1 (stereo not drawn) | 1.03 ± 0.01 | 0.735 ± 0.034 | 1.04 | 0.863 ± 0.041 | 1.01 ± 0.019 | 0.91 ± 0.025 |
| CCCCCCCCCCCCCCCCCCNC(=O)OCC(COP(=O)([O-])OCC[n+]1ccsc1)OC (stereo not drawn) | 0.9967 ± 0.0035 | 1.02 ± 0.011 | 1.02 ± 0.024 | 1.01 ± 0.015 | 0.997 ± 0.0017 | 0.82 ± 0.33 |
| CNCc1ccc(C)c(NC(=O)c2ccc(Nc3nc(-c4ccccc4)c4ccccc4n3)cc2)c1 | 0.965 ± 0.017 | 0.939 ± 0.017 | 0.9953 ± 0.0021 | 0.959 ± 0.015 | 0.991 ± 0.0027 | 0.988 ± 0.011 |
| CC(C)[C@H](O)C(=O)N[C@@H](C)C(=O)N[C@@H]1C(=O)N(C)CCc2ccccc21 | 0.964 ± 0.019 | 0.983 ± 0.025 | 0.98 ± 0.021 | 0.998 ± 0.013 | 0.979 ± 0.014 | 0.98 ± 0.012 |
| Cc1[nH]nc2ccc(-c3cncc(OC[C@@H](N)Cc4ccccc4)c3)cc12 | 0.452 ± 0.007 | 0.0555 ± 0.0049 | 0.792 ± 0.022 | 0.129 ± 0.0089 | 0.1 ± 0.012 | 0.0136 ± 0.0021 |
| N#C/C(=C/c1ccc(O)c(O)c1)C(=O)NCc1ccccc1 [Tyrphostin AG 490] | 1.01 ± 0.016 | 1.03 ± 0.015 | 0.999 ± 0.028 | 1 ± 0.014 | 1.02 ± 0.01 | 1.02 ± 0.01 |
| NCCCS(=O)(=O)O [3-Amino-1-propanesulfonic acid sodium salt] | 0.9767 ± 0.0021 | 0.842 ± 0.028 | 0.9927 ± 0.0021 | 0.917 ± 0.042 | 0.998 ± 0.011 | 0.9267 ± 0.0015 |
| NC(Cc1ccc(Cl)cc1)C(=O)O (racemic) [(±)-p-Chlorophenylalanine] | 1.002 ± 0.0072 | 1.01 ± 0.015 | 1.006 ± 0.0075 | 1 ± 0.011 | 1.007 ± 0.0058 | 1.003 ± 0.0058 |
| Cc1nc2c([nH]1)c(=O)n(C)c(=O)n2Cc1ccco1 [Furafylline] | 1 ± 0.018 | 0.967 ± 0.016 | 1.003 ± 0.0058 | 0.987 ± 0.022 | 0.9963 ± 0.0015 | 0.9977 ± 0.0025 |
| CC(NCCc1ccc(O)cc1)C(O)c1ccc(O)cc1 (stereo not drawn) [Ritodrine hydrochloride] | 0.994 ± 0.01 | 0.988 ± 0.02 | 1.02 ± 0.015 | 0.982 ± 0.0096 | 0.982 ± 0.0066 | 0.9927 ± 0.0015 |
| CC(NCCc1ccc(O)cc1)C(O)c1ccc(O)cc1 (stereo not drawn) [Ritodrine HCl] | 1.01 ± 0.011 | 0.984 ± 0.028 | 1.04 ± 0.017 | 0.984 ± 0.038 | 0.998 ± 0.013 | 0.9917 ± 0.0023 |
| CC(C)(O)CC(=O)NCCn1ccc2ncnc(Nc3ccc(Oc4cccc(C(F)(F)F)c4)c(Cl)c3)c21 | 0.906 ± 0.038 | 0.894 ± 0.012 | 0.9267 ± 0.0061 | 0.901 ± 0.026 | 0.918 ± 0.0062 | 0.824 ± 0.029 |

— the supplement of paper PMC8285479
